Structures are written as SMILES. The campaign covered roughly 310,000 compounds. About 14,000 (4.5%) showed an effect of 50% or more. Effects have a minus sign here. Some of the results follow.

This is an account of results in article PMC4336329 (PLoS ONE, 2015).
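Further: peak tail current of the secondary pulse compared with the same well before compound.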

The assay deals with human ether-à-go-go-related gene (hERG) potassium channel (human, UniProt Q12809). Nature of the assay: primary screen, population patch clamp on CHO cells stably expressing hERG.
Sequence of human ether-à-go-go-related gene (hERG) potassium channel (Q12809 whole entry, looked up): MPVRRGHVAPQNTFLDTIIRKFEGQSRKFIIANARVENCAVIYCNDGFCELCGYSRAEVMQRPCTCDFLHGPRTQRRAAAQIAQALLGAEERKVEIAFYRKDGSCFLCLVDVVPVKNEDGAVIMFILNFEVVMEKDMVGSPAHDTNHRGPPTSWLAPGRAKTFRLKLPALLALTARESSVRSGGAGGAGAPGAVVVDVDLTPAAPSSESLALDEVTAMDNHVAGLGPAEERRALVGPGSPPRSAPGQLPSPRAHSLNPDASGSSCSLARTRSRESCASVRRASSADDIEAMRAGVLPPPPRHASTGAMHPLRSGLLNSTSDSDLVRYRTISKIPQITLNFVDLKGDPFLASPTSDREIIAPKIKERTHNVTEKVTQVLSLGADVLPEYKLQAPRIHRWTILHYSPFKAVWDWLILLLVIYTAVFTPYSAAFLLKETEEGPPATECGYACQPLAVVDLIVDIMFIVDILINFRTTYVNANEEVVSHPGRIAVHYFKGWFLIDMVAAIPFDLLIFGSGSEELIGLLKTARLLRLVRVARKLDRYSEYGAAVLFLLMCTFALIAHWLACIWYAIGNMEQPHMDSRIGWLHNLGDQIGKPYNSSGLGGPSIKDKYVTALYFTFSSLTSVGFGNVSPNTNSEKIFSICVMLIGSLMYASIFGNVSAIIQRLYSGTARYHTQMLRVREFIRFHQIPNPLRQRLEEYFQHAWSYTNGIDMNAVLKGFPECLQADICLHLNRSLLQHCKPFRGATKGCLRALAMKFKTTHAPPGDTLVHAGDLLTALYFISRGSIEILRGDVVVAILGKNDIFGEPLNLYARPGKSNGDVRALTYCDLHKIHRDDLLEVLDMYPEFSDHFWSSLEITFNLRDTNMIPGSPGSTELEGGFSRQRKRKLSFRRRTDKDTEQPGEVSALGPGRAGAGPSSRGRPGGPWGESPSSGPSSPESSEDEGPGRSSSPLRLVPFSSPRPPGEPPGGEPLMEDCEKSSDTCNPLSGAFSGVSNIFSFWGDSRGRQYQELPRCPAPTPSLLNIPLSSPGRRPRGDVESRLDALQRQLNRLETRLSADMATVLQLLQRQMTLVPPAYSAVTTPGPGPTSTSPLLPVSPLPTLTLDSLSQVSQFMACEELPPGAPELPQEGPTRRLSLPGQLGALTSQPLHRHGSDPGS
Regarding `Nn1c(SCC(=O)Nc2c(Cl)cccc2Cl)nncc1=O`, the “hERG current change (%, negative = inhibition) at 10uM” value is given as -1.53%.

With `O=C(Nc1ccc(Cl)c(C(F)(F)F)c1)[C@@H]1CC=C[C@@H]2CCN(Cc3ccccc3)C(=O)[C@@H]21`, the “hERG current change (%, negative = inhibition) at 10uM” value is -15.6%. To `Cc1cc(C)n(CC(=O)NC2C(=O)N3C(C(=O)O)=C(CSc4nnc(C)s4)CSC23)n1` (stereo not shown) belongs 17.9%. Next, `COc1ccc(-n2c(SCC(=O)Nc3nccs3)nnc2-c2ccoc2C)cc1`: -80%; `CCOc1ccccc1C(=O)N(C)Cc1cc2cc(OC)ccc2[nH]c1=O`: -17.1%. Next, `N#CC1=C(N)C2=CCCC[C@H]2[C@H](c2ccc(Br)cc2)C1(C#N)C#N`: -4.86%; `Oc1nc(Nc2ccc(Cl)cc2Cl)sc1/C=C1\C=Nc2ccccc21`: 9.08%; `O=C1CC(N2CCN(c3ccccn3)CC2)C(=O)N1CC(c1ccccc1)c1ccccc1` (stereo not shown): -64%.

For the compound `COc1ccc(OCc2cc(C(=O)N3CCSCC3)no2)c(Cl)c1`, the “hERG current change (%, negative = inhibition) at 10uM” value is listed as -9.25%.

As to `COc1ccc2c(=O)c(C(=O)O)c(-c3ccc4c(c3)OCO4)n(C)c2c1`, the “hERG current change (%, negative = inhibition) at 10uM” value is on record as 17.2%.

As to `Cc1cc(C)n2nc(SCC(=O)Nc3c(C)n(C)n(-c4ccccc4)c3=O)nc2n1`, the “hERG current change (%, negative = inhibition) at 10uM” value was 1.69%. To `O=C(COc1ccc2c(c1)oc(=O)c1ccccc12)NCCN1CCOCC1` belongs -11%; to `COC(=O)C1=NNC2C(=O)N(C3CCCCC3)C(=O)C12` (stereo not shown), -1.72%; to `CCCOc1ccc(-c2c(C(=O)N/N=C/c3cccs3)nnn2-c2nonc2N)cc1`, 19.3%. With `c1ccc(Cn2nnc(CNc3ccccc3)c2-c2c(CNc3ccccc3)nnn2Cc2ccccc2)cc1`, the “hERG current change (%, negative = inhibition) at 10uM” value is 6.62%. Next, `O=C(c1ccc2ccccc2c1)C1CCCN(C(=O)c2cnccn2)C1` (stereo not shown): -31.2%; `C=CCn1c(C)c(C(C)=O)c(SC)nc1=S`: -5.54%; `O=C(NC1CCCC1)C(c1ccncc1)N(C(=O)c1csnn1)C1CCCC1` (stereo not shown): -2.05%. On to `CCOc1cc(C(c2c(C)[nH][nH]c2=O)c2c(C)[nH][nH]c2=O)ccc1O`, for which the “hERG current change (%, negative = inhibition) at 10uM” value is on record as 2.19%. To `NS(=O)(=O)c1ccc(CCNC(=O)CNCCc2ccccc2)cc1` belongs 16.2%.

With `COc1ccccc1N1CCN(C(=O)C2CCN(S(=O)(=O)c3ccccc3)CC2)CC1`, the “hERG current change (%, negative = inhibition) at 10uM” value was -15.3%. Next, `N/C(=N\OC(=O)c1cc(-c2ccccc2)nc2ccccc12)c1ccccn1`: 13.6%. Next, `O=C(c1ccco1)N1CCN(S(=O)(=O)c2c(Cl)cccc2Cl)CC1`: -20.9%; `CCCCCOC(=O)Cn1c(N2CCCCCC2)nc2c1c(=O)[nH]c(=O)n2C`: -5.81%; `COCCN(CCOC)S(=O)(=O)c1ccc(C(=O)Nc2ccncc2)cc1`: -11.6%.

As for `O=C(COc1ccc(=O)n(-c2ccccc2)n1)Nc1ccccc1`, the “hERG current change (%, negative = inhibition) at 10uM” value is recorded as -1.87%. Next, `COc1cc2c(cc1OC)CN(S(=O)(=O)c1cccs1)CC2`: -17.6%; `c1ccc(-c2nnc(SCc3nc4ccccc4[nH]3)n2Cc2ccco2)nc1`: -8.18%. For the compound `N#Cc1c(C(F)(F)F)cc(-c2ccc(F)cc2)[nH]c1=O`, the “hERG current change (%, negative = inhibition) at 10uM” value worked out at 33.1%. To `CC(C)c1cc(CNC(=O)CCc2nnc(CCCCc3ccccc3)o2)on1` belongs 4.23%. Next, `C=C(C)CSc1nc(N)c2c3c(sc2n1)CCC3`: -5.7%.

For `COc1ccccc1N1C(=O)C2C3C=CC(CC3)C2C1=O` (stereo not shown), the “hERG current change (%, negative = inhibition) at 10uM” value is 7.75%. To `COC(=O)c1ccc(/C=C2\N=C(SC)SC2=O)cc1` belongs 9.47%; to `CC(C)CN(C(=O)CSc1nnc(C2CC2)n1-c1ccccc1)C1CCS(=O)(=O)C1` (stereo not shown), -0.403%. Take `CCCS(=O)(=O)Nc1c(C(=O)O)[nH]c2ccccc12`: the “hERG current change (%, negative = inhibition) at 10uM” value was determined as 12%. To `O=S(=O)(/C(=C/c1ccc(C(F)(F)F)cc1)c1nc2ccccc2[nH]1)c1ccccc1` belongs -4.01%; to `CCOC(=O)c1sc(N)c(C(=O)OC)c1C`, 5.27%. Next, `Cc1ccccc1C(=O)c1c[nH]c(C(=O)NCCc2ccccn2)c1`: -3.69%; `O=C(Nc1ccccc1Br)c1cccc2ccccc12`: 1.37%; `Cc1cc(NS(=O)(=O)c2ccc(NC(=O)CSc3nc4sc(C)c(C)c4c(=O)[nH]3)cc2)no1`: -4.03%. Next, `c1ccc(SSc2ccccn2)nc1`: 6.66%; `O=C(CC1SC(N2CCCCC2)=NC1=O)Nc1ccc(C(=O)NCCc2ccc(F)cc2)cc1` (stereo not shown): -9.01%; `Cc1ccc(C2c3[nH]c4ccccc4c3C[C@H]3C(=O)N(c4ccccc4C(=O)N4CCC[C@@H]4C(=O)O)C(=O)N23)cc1` (stereo partly shown): -0.654%.

Regarding `CC(=O)c1cn(-c2ccc(Cl)cc2)c(=O)n(Cc2ccc(F)cc2)c1=O`, the “hERG current change (%, negative = inhibition) at 10uM” value was determined as 1.04%.

Turning to `Cc1ccc(S(=O)(=O)NCC(=O)N(CC(=O)NCC2CCCO2)Cc2ccccc2Cl)cc1` (stereo not shown), the “hERG current change (%, negative = inhibition) at 10uM” value is reported as -4.07%. On to `CCOC(=O)c1ccc(NC(=O)CSc2nc3c(c(=O)n2-c2ccccc2OC)SCC3)cc1`, for which the “hERG current change (%, negative = inhibition) at 10uM” value was determined as 10.2%.

Regarding `C/C(=N\Nc1nc(C)c(C)s1)c1ccc([N+](=O)[O-])cc1`, the “hERG current change (%, negative = inhibition) at 10uM” value is 14.9%. Next, `CC(Oc1ccc(Cl)cc1Cl)C(=O)N(Cc1ccco1)C1CCS(=O)(=O)C1` (stereo not shown): -25.6%; `CCNC(=O)NC(=O)CSc1ccc(S(=O)(=O)N2CCCCC2)cn1`: 0.377%. Next, `Cc1cc(C)c(S(=O)(=O)Nn2cnnc2)c(C)c1`: 22%; `CCCCOc1ccc(/C=N/NC(=O)c2nnn(-c3nonc3N)c2CN2CCCCCC2)cc1`: 5.06%; `COC(C(=O)Nc1ccc(Cl)cc1C)c1ccccc1` (stereo not shown): -14.1%.

For the compound `CC(C)NC(=O)COc1coc(CN2CCN(Cc3ccccc3)CC2)cc1=O`, the “hERG current change (%, negative = inhibition) at 10uM” value was 11.9%.

Turning to `CCc1nc(NCCO)c(C#N)c2c1CCCC2`, the “hERG current change (%, negative = inhibition) at 10uM” value worked out at 13.4%. Next, `O=c1cc(-c2ccccc2)nc2cc(-c3ccc(Br)cc3)[nH]n12`: 21.1%. As for `O=C1NC(=O)[C@]2(Cc3ccccc3N3CCN(c4ccccc4)CC32)C(=O)N1c1ccccc1` (stereo partly shown), the “hERG current change (%, negative = inhibition) at 10uM” value was -7.93%.

For `CSCC(=O)N1CCCC(CNC(=O)c2ccc(-c3ccccc3)cc2)C1` (stereo not shown), the “hERG current change (%, negative = inhibition) at 10uM” value was -28.5%. To `CCOC(=O)[C@@H]1[C@H]2COc3ccc(Br)cc3[C@H]2N2C(=O)N(c3ccc(Br)cc3)C(=O)[C@]12C` belongs 7.88%.

Consider `CCCCCn1c(NC2CCCCC2)nc2c1c(=O)[nH]c(=O)n2C`, for which the “hERG current change (%, negative = inhibition) at 10uM” value is reported as -17.6%. Next, `O=C(COC(=O)c1cccc2ccccc12)NCCCc1ccccc1`: 0.562%; `Cc1ccc2cc(CCNC(=O)CCCc3ccccc3)c(=O)[nH]c2c1`: 1.97%; `Cc1nnc(NC(=O)c2nc(S(=O)(=O)Cc3ccccc3)ncc2Cl)s1`: 11.5%. Next, `O=c1cnn(-c2ccccc2)c(-c2ccccc2)c1`: 3.33%; `COC(=O)CCCC1=CC2=C(c3ccccc3)C(=O)C(C)(OC(=O)C3CCCC3)C(=O)C2=CN1CCN1CCOCC1` (stereo not shown): -2.79%; `CCOC(=O)C1/C(=N\O)CC(C)(O)C(C(=O)OCC)C1c1ccc(N(C)C)cc1` (stereo not shown): 16%. For the compound `O=C(COc1ccc(F)cc1)N(Cc1ccco1)C1CCS(=O)(=O)C1` (stereo not shown), the “hERG current change (%, negative = inhibition) at 10uM” value was -28.4%.

With `COc1ccc(/C=C/C(=O)NCCc2ccc(OC)c(OC)c2)cc1`, the “hERG current change (%, negative = inhibition) at 10uM” value was -10.1%.

As to `CSc1cccc(NS(=O)(=O)c2ccc(F)cc2)c1`, the “hERG current change (%, negative = inhibition) at 10uM” value is on record as -8.72%. Next, `Cc1ccccc1C(=O)NNC(=O)c1cccn1C`: 0.00628%; `CC(C)(C)c1ccc(Oc2ccc(NC(=O)C3CC=CCC3C(=O)O)cc2)cc1` (stereo not shown): -3.95%; `CC(OC(=O)c1cn(-c2ccccc2)nc1-c1cccnc1)C(N)=O` (stereo not shown): -10.1%. Next, `Cc1cc(NS(=O)(=O)c2ccc(NC(=O)N[C@H](C(=O)O)C(C)C)cc2)no1`: 29.3%; `CCCCC1=CC2=C(c3ccco3)C(=O)C(C)(OC(=O)c3ccc(OC)cc3)C(=O)C2=CN1c1ccccc1` (stereo not shown): 13.4%; `COC(=O)/C=c1/sc2n(c1=O)CCN=2`: 6.33%. To `CC(C)CCNC(=O)CCc1nnc(Cc2c[nH]c3ccccc23)o1` belongs 12.6%. Turning to `c1cncc(-c2cnc3ccccc3c2)c1`, the “hERG current change (%, negative = inhibition) at 10uM” value was determined as 8.02%. To `Cc1nc(-c2ccccc2)sc1C1(C)CC(c2ccc([N+](=O)[O-])cc2)=NO1` (stereo not shown) belongs 3.94%. To `O=C(CN1C(=O)/C(=C/c2ccccc2)Sc2ccccc21)NCCCN1CCOCC1` belongs -42.8%. To `Cc1ccc(NS(=O)(=O)c2cc(Br)cnc2N)cc1C` belongs -27.3%; to `COc1ccc(OC)c(CN2CCC(C(=O)N(C)CCc3ccc(OC)c(OC)c3)CC2)c1.O=C(O)C(=O)O`, -11.5%.

As for `Cc1nc(NC(=O)c2cccc(Cl)c2)sc1C(=O)N1CCCCC1`, the “hERG current change (%, negative = inhibition) at 10uM” value is given as 8.92%.

Regarding `Cc1c(C(=O)Nc2ccccc2-c2ccccc2)cccc1[N+](=O)[O-]`, the “hERG current change (%, negative = inhibition) at 10uM” value is recorded as -30.4%.

For the compound `COc1cccc(N2C(=O)CC(N3CCC(C(N)=O)(N4CCCCC4)CC3)C2=O)c1` (stereo not shown), the “hERG current change (%, negative = inhibition) at 10uM” value is -2.64%.

For the compound `CC(=O)CSc1nc2cc3c(cc2cc1C#N)OCCO3`, the “hERG current change (%, negative = inhibition) at 10uM” value stood at 8.69%.

As to `CC#CCN1c2ccccc2[C@]23C[C@@H](C(=O)OC)N(C(C)=O)C2=NC(C(=O)OC)=C(C(=O)OC)[C@H]13`, the “hERG current change (%, negative = inhibition) at 10uM” value was -1.39%.
